Results from PubChem BioAssay (NCI).
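Tested at 5 concentrations; 48 h exposure; 96-well plates; endpoints linearly interpolated, else capped at highest concentration. GI50 marks 50% less growth. TGI marks complete inhibition of growth.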

System: NCI-H322M lung
Test: inhibition of tumour cell growth, NCI panel, 48 h

Row | SMILES | GI50 [µM] | TGI [µM]
1 | CCOC(=O)c1c(NC(=O)c2ccccc2C(F)(F)F)sc2c1CCC(=O)C2 | 4.12 | > 100
2 | CC(=O)OC[C@@]12Oc3c(cccc3-c3ccc(O)c4c3O[C@]3(COC(C)=O)C(=C4O)C(=O)C[C@H](C)[C@@H]3OC(C)=O)C(O)=C1C(=O)C[C@H](C)[C@@H]2OC(C)=O | 20.1 | > 100
